Where “and” joins values, the source holds several entries; their conditions need not be identical. Equal entries are not always repeated. About 50,000 (12%) of roughly 420,000 compounds were called active. This list was built around the results that the source calls inconclusive (neither active nor inactive); the mix of calls is not that of the screen. The call rests on the fitted dose curve; in most records, active means well fitted inhibition curve with a large enough effect; inconclusive means small, poorly fitted or top-dose-only effect; inactive means flat fitted curve, though single readings scatter. Potencies of inconclusive entries are doubtful fits and often do not repeat.
Assay: qHTS for Inhibitors of human tyrosyl-DNA phosphodiesterase 1 (TDP1): qHTS in cells in presence of CPT; further: nearly all actives have a fitted effect of over 55% in size
Conditions: chicken DT40 Tdp1-/-;hTDP1 cells + 20 nM CPT, ATP luminescence, 48 h; series mostly up to 46.2 µM
Outline: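 Cell growth measured by CellTiter-Glo luminescence after a minimum 48 h, 37 C compound exposure with 20 nM CPT in Tdp1-knockout DT40 cells stably expressing hTDP1, seeded 400/well; qHTS titration format.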
Potency means the concentration at half of the fitted maximal effect; tags describe the fitted curve by direction and shape.

Structure (SMILES) | Potency
CC(=O)NS(=O)(=O)c1ccc(NC(=O)[C@@H]2CCCN2S(=O)(=O)c2ccc(Cl)cc2)cc1 | inactive
CCn1c(CNc2ccc(C(=O)O)cc2)nc2ccccc21 | inconclusive: 23.1 µM [inhibitor, single point]
COc1cccc(/C=N/Nc2ccc(C(=O)O)cc2)c1O | inconclusive: 13 µM [inhibitor, partial curve]
COc1cccc(/C=N/n2c(C3CCCCC3)n[nH]c2=S)c1OC | inconclusive: 18.4 µM [inhibitor, single point]
CC(=O)N1CCc2cc(S(=O)(=O)CCC(=O)N3CCc4ccccc4C3)ccc21 | inconclusive: 29.1 µM [inhibitor, single point]
CCN(CC)S(=O)(=O)c1ccc2c(c1)N(CC(=O)NCc1ccccn1)C(=O)CO2 | inactive
O=C(C1CCCN(c2ncccn2)C1)N1CCc2ccccc21 (centres undefined) | inconclusive: 16.4 µM [inhibitor, single point]
CCCCc1nn2c(=O)cc(COC(=O)c3ccc(NC(=O)CCc4ccccc4)cc3)nc2s1 | inactive
O/N=C/c1cc(Br)cc(Br)c1OCc1ccccc1 | inconclusive: 16.4 µM [inhibitor, single point]
CCOCCCN1C(=O)c2[nH]nc(-c3ccccc3O)c2C1c1ccc(CC)cc1 (centres undefined) | active: 20.6 µM
NS(=O)(=O)c1cccc(NC(=O)COC(=O)CSCc2ccccc2)c1 | inactive
COc1cc(OC)c(OC)cc1C#N | inactive
COc1ccc(CN2CC(=O)N(c3cc(Cl)ccc3OC)C2=S)cc1OC | inconclusive: 23.1 µM [inhibitor, single point]
Cc1nc2cc(F)ccc2n1C1CCN(C(=O)c2c(F)cccc2F)CC1 | active: 11.6 µM
CC(C)CCNC(=O)C(c1ccco1)N(Cc1cccs1)C(=O)Cn1nnc2ccccc21 (centres undefined) | active: 25.9 µM
CC(=O)c1sc(NCc2ccc(C)cc2)nc1C | inactive
O=C(CSc1nc2ccccc2n1CC(=O)N1CCCC1)Nc1ccc2c(c1)OCO2 | inconclusive: 29.1 µM [inhibitor, single point]
Cc1ccc(C(=O)N2CCN(C(=O)c3ccco3)CC2)cc1NC(=O)c1ccco1 | inactive
Nn1c(Cc2cccc3ccccc23)nnc1SCCOc1ccc(Br)cc1 | inconclusive: 16.4 µM [inhibitor, single point]
Cc1ccccc1OCCNC(=S)Nc1ccccc1 | active: 29.1 µM
CCCCN(C)S(=O)(=O)c1ccc(C(=O)Nc2sc3c(c2C(N)=O)CC(C)(C)NC3(C)C)cc1 | inconclusive: 9.2 µM [inhibitor, partial curve]
O=C(Nc1ccc2c(c1)OCO2)N1CCN(c2ncccn2)CC1 | inactive
CCN(Cc1ccccc1)C(=O)Cn1c(=O)n(-c2ccc(Cl)cc2)c(=O)c2c(C)c(C(=O)N(C)C)sc21 | inactive
CCSc1nnc(-c2sc3nnc(-c4ccccc4)c(-c4ccccc4)c3c2N)o1 | active: 13 µM
CCCCCc1nc(N)c(C#N)c(-c2ccco2)c1CCCC | inconclusive: 16.4 µM [inhibitor, single point]

Structure (SMILES) | Potency
O=C(OCc1nc2ccccc2[nH]1)C1CCCCC1 | inactive
CCCCC(=O)N(C)c1c(CC)nc2c(OCC(=O)c3ccc(F)cc3)cccn12 | inconclusive: 29.1 µM [inhibitor, single point]
COc1ccc(/C=N/NC(=O)c2c(C)n(C)c3ccc(OC)cc23)c(OC)c1 | inactive
CC(C)CCNC(=O)C(C)N(Cc1ccc(F)cc1)C(=O)c1ccc(CN2CCOCC2)o1 (centres undefined) | inactive
Cc1ccc(NC(=O)c2cc3ccccc3cc2O)cc1 | active: 16.4 µM
C[C@@H]1CN([C@H](C)CO)C(=O)CCCn2nncc2CO[C@@H]1CN(C)S(=O)(=O)c1ccc(C#N)cc1 | inactive
Cc1ccc(CCNC(=O)CS(=O)Cc2nc(-c3ccccc3C)oc2C)cc1 (centres undefined) | inconclusive: 18.4 µM [inhibitor, single point]
Cc1onc(-c2ccccc2)c1C(=O)Oc1ccccc1 | inconclusive: 20.6 µM [inhibitor, single point]
O=C(CN1C(=O)CSc2ccc(S(=O)(=O)N3CCCCCC3)cc21)NCCc1ccccc1 | inconclusive: 29.1 µM [inhibitor, single point]
O=C(c1cc(S(=O)(=O)N2CCN(c3ccccc3)CC2)ccc1Cl)N1CCCC(C(F)(F)F)C1 (centres undefined) | active: 14.6 µM
COc1cc(/C=C/c2ccc3cccc(O)c3n2)cc(Cl)c1OC | active: 4.11 µM
O=C(CSc1nc2c(oc3ccccc32)c(=O)n1Cc1ccco1)Nc1ccccc1Cl | inconclusive: 13 µM [inhibitor, partial curve]
COc1ccc(CC(=O)OCC(=O)N2N=C(c3ccccc3)CC2c2ccc(OC)cc2)cc1 (centres undefined) | inconclusive: 23.1 µM [inhibitor, single point]
CC1CCCCC1NC(=O)C1CCCN1S(=O)(=O)c1cccc2nsnc12 (centres undefined) | inconclusive: 29.1 µM [inhibitor, single point]
COCCNC(=O)COc1ccc(N(C)S(=O)(=O)c2ccc3ccccc3c2)cc1 | inactive
c1ccc(CN2CCN(C3=Nc4cccc5cccc3c45)CC2)cc1 | inconclusive: 18.4 µM [inhibitor, single point]
CN(C)c1ccc(/C=C/c2ccc3cc(N(C)C)ccc3n2)cc1 | active: 12.6 µM
COc1ccc(C2=NOC(Cn3nc(C(=O)NCc4cccc(C(F)(F)F)c4)cc3-c3ccccc3)C2)cc1 (centres undefined) | active: 18.4 µM
CCN(CC)C(=O)C1=C(C)N(CCCOC)C(=O)C(CC(=O)NC2CCCC2)C1 (centres undefined) | inactive
CC1C(=O)C(C)C(c2ccccc2)N(N=O)C1c1ccccc1 (centres undefined) | inconclusive: 10.3 µM [inhibitor, partial curve, poor fit]
COc1ccc(-c2nn(-c3ccccc3)cc2C2CC(c3cccs3)=NN2C(=O)CCC(=O)O)cc1 (centres undefined) | inconclusive: 18.4 µM [inhibitor, single point]
CCN(CC)S(=O)(=O)c1cc(NC(=O)CSCc2c(C)noc2C)ccc1C | inconclusive: 29.1 µM [inhibitor, single point]
Cc1cc(N/N=C/c2ccc(Cl)cc2Cl)nc(NCc2ccccc2)n1 | active: 10.3 µM
CCc1ccc(OCc2nc(-c3ccc(OC)cc3)no2)c(Br)c1 | inactive
C/C(=N\NC(=O)c1cc2ccccc2cc1O)c1ccc2c(c1)OCO2 | inactive

Structure (SMILES) | Potency
COc1ccc2c(c1)Cc1c-2cc(Br)c(N)c1Br | inactive
CCOc1ccc(NS(=O)(=O)c2ccc(C(=O)NCC(c3ccco3)N3CCCC3)cc2)cc1 (centres undefined) | inconclusive: 18.4 µM [inhibitor, single point]
Cc1ccc(/C(N)=N/OC(=O)c2cccc(Cn3cc(C(F)(F)F)ccc3=O)c2)cc1 | inconclusive: 29.1 µM [inhibitor, single point]
COc1ccccc1N1CCN(C(=O)/C=C/c2ccc3c(c2)OCO3)CC1 | active: 20.6 µM
Cc1ccc(SCC(=O)Nc2nnc(C(C)(C)C)s2)cc1 | inactive
CC(C)(CO)CNc1ccn2nccc2n1 | active: 13 µM
Cc1ccc(Cn2c(=N)n(CC(O)c3ccco3)c3ccccc32)cc1 (centres undefined) | inactive
COc1ccc2[nH]cc(CCNS(=O)(=O)c3ccc(C)cc3)c2c1 | inconclusive: 0.259 µM [inhibitor, full curve]
O=C(Nc1ccc2c(c1)nc1n2CCN(C2CCCCC2)C1)c1ccco1 | inconclusive: 29.1 µM [inhibitor, single point]
COc1ccc(C2=NCC(CSc3nnnn3C)S2)cc1 (centres undefined) | inconclusive: 10.3 µM [inhibitor, partial curve]
CC(C)OC(=O)/C(=C\c1cccc2ccccc12)NC(=O)c1ccccc1 | inconclusive: 29.1 µM [inhibitor, single point]
S=C(NCCc1ccc(Cl)cc1)NCc1ccco1 | inactive
Cc1cc(C)cc(OCc2nc3ncc(Br)cc3[nH]2)c1 | active: 2.31 µM
Cc1ccc(C)c(OCC(O)CN2CCc3ccccc3C2)c1C (centres undefined) | active: 6.51 µM
CCOc1ccc(C2C(=O)N(C3CCCCCC3)CC(=O)N2CCc2ccc(OC)c(OC)c2)cc1OC (centres undefined) | inconclusive: 16.4 µM [inhibitor, partial curve]
CCC(=O)N1CCN(c2ccc(NC(=O)c3ccco3)cc2Cl)CC1 | inactive
O=C1NC[C@H](CCCCN2C[C@H](Cc3ccc(O)cc3)N(CC3CCCCC3)C(=O)C2=O)N(CCC2CCCCC2)C1=O | inactive
CCOc1ccc(CCNC(=O)c2oc3c(c2C)-c2[nH]ncc2CC3)cc1OCC | inconclusive: 18.4 µM [inhibitor, single point]
O=S(=O)(c1ccc2nc(NCc3ccccc3Cl)ccc2c1)N1CCCCC1 | active: 10.3 µM
Cc1c(Cl)cccc1Nc1ncccc1C(=O)O | inconclusive: 26.6 µM [inhibitor, single point] and inconclusive: 8.2 µM [inhibitor, partial curve]
O=C(NC(=S)NC12CC3CC(CC(C3)C1)C2)c1ccc(F)cc1 | inconclusive: 18.4 µM [inhibitor, single point]
CC1(C(=O)NCCC#N)CCN1C(=O)c1ccccc1CCc1ccccc1 (centres undefined) | inconclusive: 0.0052 µM [inhibitor, full curve, poor fit]
CCOc1ccc(C)cc1S(=O)(=O)N1CCCCC1 | inconclusive: 29.1 µM [inhibitor, single point]
COc1ccc(-c2nc3ccc(Br)cn3c2Cc2ccccc2)cc1OC | inconclusive: 23.1 µM [inhibitor, single point]

Source: PubChem BioAssay AID686979 (National Center for Advancing Translational Sciences (NCATS), 2013)
